According to the supplement of paper PMC4604168 (melanoma cell lines):
The other results are listed elsewhere or left out. Single values are uncertain, as repeats are few or missing.

Legend:
Assay in all cases: cell count relative to DMSO control; melanoma cells; higher = more viable cells
Details in all cases: library dose: standard library concentration; 72 h
[1] = tested on: G361
[2] = tested on: IPC-298
[3] = tested on: IST-MEL1
[4] = tested on: LB2518-MEL
[5] = tested on: LOXIMVI
[6] = tested on: MEL-HO
[7] = tested on: MZ2-MEL
[8] = tested on: MeWo
[9] = tested on: RPMI7951
[10] = tested on: RVH-421
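Also: cells treated in 1,536-well plates, then fixed and DAPI-stained, with nuclei counted from automated high-throughput microscope images.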

SMILES	cell count [1] [%]	cell count [2] [%]	cell count [3] [%]	cell count [4] [%]	cell count [5] [%]	cell count [6] [%]	cell count [7] [%]	cell count [8] [%]	cell count [9] [%]	cell count [10] [%]
Clc1ccc(Nc2nnc(Cc3ccncc3)c3ccccc23)cc1 [vatalanib] + COc1cc2ncnc(Nc3ccc(Oc4ccccc4)cc3)c2cc1OC [SrcI1] (first compound 10 µM, partner dose 10 µM)	30.1	53.4	63.5	127	58.2	64.5	41.5	48.4	32.1	81.3
COCC[n+]1c2c(n(Cc3cnccn3)c1C)C(=O)c1ccccc1C2=O + NCC(=O)Nc1ccc(-n2nc(C(F)(F)F)cc2-c2ccc3c(ccc4ccccc43)c2)cc1 [OSU03012] (first compound 0.002 µM, partner dose 5 µM)	75.3	47.3	36.6	33.5	56.3	78.8	39.6	59	49.9	78.8
OCc1c[nH]c2ccccc12 [Indole-3-carbinol] + COc1ccc(Cl)c(Nc2nc3ccccc3nc2NS(=O)(=O)c2cccc(NC(=O)C(C)(C)N)c2)c1 [XL147] (first compound 4 µM, partner dose 4 µM)	89.1	76.4	60	90.8	115	74.5	76.4	88.7	79.6	74.6
Nc1cccc2c1CN(C1CCC(=O)NC1=O)C2=O (stereo not given) [lenalidomide] + Cn1cncc1[C@@](N)(c1ccc(Cl)cc1)c1ccc2c(c1)c(-c1cccc(Cl)c1)cc(=O)n2C [tipifarnib] (first compound 5 µM, partner dose 0.05 µM)	79.5	84.9	289	80.3	63.4	87.2	109	88.4	74	102
C#Cc1cccc(Nc2ncnc3cc(OCCOC)c(OCCOC)cc23)c1 [erlotinib] + O=C(O)c1ccc(-c2c[nH]c3ncc(-c4ccccc4)cc23)cc1C1CCCC1 [GSK650394] (first compound 4 µM, partner dose 0.8 µM)	43.3	72.4	68.4	56.9	67.6	66.2	82.5	63.1	60.7	79.9
C#Cc1cccc(Nc2ncnc3cc(OCCOC)c(OCCOC)cc23)c1 [erlotinib] + C[C@]1(c2nc3c(C(N)=O)cccc3[nH]2)CCCN1 [Veliparib] (first compound 4 µM, partner dose 7 µM)	60.9	57.3	79.9	60.3	73.8	70.2	79.2	63.9	58.4	65
Cn1c(Nc2ccc(C(F)(F)F)cc2)nc2cc(Oc3ccnc(-c4ncc(C(F)(F)F)[nH]4)c3)ccc21 + O=S(=O)(c1ccccc1)N(CC(F)(F)F)c1ccc(C(O)(C(F)(F)F)C(F)(F)F)cc1 [T0901317] (first compound 0.4 µM, partner dose 7 µM)	26.9	43.1	80.1	39.6	79.1	69.4	60.8	66.9	38.1	53.7
Cn1c(Nc2ccc(C(F)(F)F)cc2)nc2cc(Oc3ccnc(-c4ncc(C(F)(F)F)[nH]4)c3)ccc21 + O=C(Nc1ccccc1)c1cc([N+](=O)[O-])ccc1Cl [GW9662] (first compound 0.4 µM, partner dose 10 µM)	31.9	49.6	92.7	30.2	96	58.6	48.4	68.8	44.4	40.2
Clc1ccc(Nc2nnc(Cc3ccncc3)c3ccccc23)cc1 [vatalanib] + C[C@@H]1CCN(C(=O)CC#N)C[C@@H]1N(C)c1ncnc2[nH]ccc12 [CP690550] (first compound 10 µM, partner dose 5 µM)	71.7	75.2	74.3	84.3	64.9	65.6	79.7	67.3	65.5	87.9
Cn1c(Nc2ccc(C(F)(F)F)cc2)nc2cc(Oc3ccnc(-c4ncc(C(F)(F)F)[nH]4)c3)ccc21 + CCc1ccc(CCOc2ccc(CC3SC(=O)NC3=O)cc2)nc1 [pioglitazone] (first compound 0.4 µM, partner dose 10 µM)	31.4	45.2	81	32.9	80.8	68.6	66.8	69.2	50.2	30.3
Cn1c(Nc2ccc(C(F)(F)F)cc2)nc2cc(Oc3ccnc(-c4ncc(C(F)(F)F)[nH]4)c3)ccc21 + O=C(O)c1ccc(-c2c[nH]c3ncc(-c4ccccc4)cc23)cc1C1CCCC1 [GSK650394] (first compound 0.4 µM, partner dose 0.8 µM)	29.6	49	74.4	33.9	75	62.4	71.3	69.4	41.9	44.3
Clc1ccc(Nc2nnc(Cc3ccncc3)c3ccccc23)cc1 [vatalanib] + Cn1cncc1[C@@](N)(c1ccc(Cl)cc1)c1ccc2c(c1)c(-c1cccc(Cl)c1)cc(=O)n2C [tipifarnib] (first compound 10 µM, partner dose 0.05 µM)	55.5	62.7	59.3	67.2	71	61.7	80.9	67.1	53.4	62.7
